Test results published in the supplement of paper PMC8948288.
The sequences are guide strands of siRNAs; only the seed at positions 2 to 7 varies.

Key:
H4 = experiment: cell viability relative to siNT1 (ATP content); H4 human neuroglioma and GL261 mouse glioma; higher = less toxic; conditions: siRNA concentration 10 nM; 96 h; human
Experimental: (§1)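 Arrayed screen of all 4096 6mer seeds. Each seed sits at guide-strand positions 2-7 of a neutral 19mer siRNA backbone (siNT1-based, passenger strand 2'-O-methyl modified at positions 1-2 to block RISC loading, 3' DNA overhangs). The guide strand is built here as U + seed + ACAUGUAAACCA. Cells were reverse transfected in triplicate in 384-well plates (H4 at 10 nM, GL261 at 25 nM) with Lipofectamine RNAiMAX. Viability was read as ATP content (CellTiter-Glo) 96 h after transfection and normalised to siNT1 (%).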

GL261 = experiment: as above; conditions: siRNA concentration 25 nM; 96 h; mouse
Experimental: as §1
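Also: cells reverse transfected with siRNA duplexes via lipid reagent, ATP read by luminescence, triplicate wells, values scaled to mean viability with non-targeting control siNT1.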

| Sequence | cell viability (H4) [%] | cell viability (GL261) [%] |
| --- | --- | --- |
| UCCGGUAACAUGUAAACCA | 73 | 47 |
| UCCGGUCACAUGUAAACCA | 30.8 | 14.2 |
| UCCGGUGACAUGUAAACCA | 62.8 | 72 |
| UCCGGUUACAUGUAAACCA | 64.6 | 34.5 |
| UCCGUAAACAUGUAAACCA | 80.3 | 50.2 |
| UCCGUACACAUGUAAACCA | 72.3 | 56.4 |
| UCCGUAGACAUGUAAACCA | 84.7 | 47.8 |
| UCCGUAUACAUGUAAACCA | 105 | 40.4 |
| UCCGUCAACAUGUAAACCA | 81.6 | 31.1 |
| UCCGUCCACAUGUAAACCA | 28.7 | 14 |
| UCCGUCGACAUGUAAACCA | 65.1 | 42.7 |
| UCCGUCUACAUGUAAACCA | 46.5 | 25.6 |
| UCCGUGAACAUGUAAACCA | 82.5 | 31.4 |
| UCCGUGCACAUGUAAACCA | 10.5 | 14.8 |
| UCCGUGGACAUGUAAACCA | 55.1 | 25.4 |
| UCCGUGUACAUGUAAACCA | 61.4 | 27.1 |
| UCCGUUAACAUGUAAACCA | 102 | 81.2 |
| UCCGUUCACAUGUAAACCA | 29.2 | 24.5 |
| UCCGUUGACAUGUAAACCA | 78.7 | 48.3 |

| Sequence | cell viability (H4) [%] | cell viability (GL261) [%] |
| --- | --- | --- |
| UCCGUUUACAUGUAAACCA | 81.8 | 38 |
| UCCUAAAACAUGUAAACCA | 106 | 46.4 |
| UCCUAACACAUGUAAACCA | 65.6 | 26 |
| UCCUAAGACAUGUAAACCA | 82.9 | 75.7 |
| UCCUAAUACAUGUAAACCA | 91.1 | 66.3 |
| UCCUACAACAUGUAAACCA | 86.8 | 45 |
| UCCUACCACAUGUAAACCA | 49.5 | 19.8 |
| UCCUACGACAUGUAAACCA | 76 | 47.1 |
| UCCUACUACAUGUAAACCA | 63.4 | 35.5 |
| UCCUAGAACAUGUAAACCA | 73.3 | 45.5 |
| UCCUAGCACAUGUAAACCA | 17.8 | 10 |
| UCCUAGGACAUGUAAACCA | 56.1 | 45.7 |
| UCCUAGUACAUGUAAACCA | 72.2 | 29.3 |
| UCCUAUAACAUGUAAACCA | 106 | 51.3 |
| UCCUAUCACAUGUAAACCA | 62.3 | 14.1 |
| UCCUAUGACAUGUAAACCA | 82 | 50.2 |
| UCCUAUUACAUGUAAACCA | 89.8 | 37.6 |
| UCCUCAAACAUGUAAACCA | 79.4 | 26.5 |
| UCCUCACACAUGUAAACCA | 68.2 | 20.5 |

| Sequence | cell viability (H4) [%] | cell viability (GL261) [%] |
| --- | --- | --- |
| UCCUCAGACAUGUAAACCA | 70.1 | 23 |
| UCCUCAUACAUGUAAACCA | 86.4 | 25.3 |
| UCCUCCAACAUGUAAACCA | 72.3 | 21.4 |
| UCCUCCCACAUGUAAACCA | 58.7 | 12.8 |
| UCCUCCGACAUGUAAACCA | 74.6 | 30.8 |
| UCCUCCUACAUGUAAACCA | 52.1 | 19.4 |
| UCCUCGAACAUGUAAACCA | 75 | 38.1 |
| UCCUCGCACAUGUAAACCA | 63.5 | 20.3 |
| UCCUCGGACAUGUAAACCA | 78.3 | 19.8 |
| UCCUCGUACAUGUAAACCA | 95.4 | 25.9 |
| UCCUCUAACAUGUAAACCA | 112 | 59.5 |
| UCCUCUCACAUGUAAACCA | 84.9 | 19.2 |
| UCCUCUGACAUGUAAACCA | 71.4 | 46.4 |
| UCCUCUUACAUGUAAACCA | 77.9 | 35.5 |
| UCCUGAAACAUGUAAACCA | 86.8 | 35.5 |
| UCCUGACACAUGUAAACCA | 30.2 | 19.4 |
| UCCUGAGACAUGUAAACCA | 111 | 52.7 |
| UCCUGAUACAUGUAAACCA | 91.3 | 38.1 |
| UCCUGCAACAUGUAAACCA | 98 | 40.1 |
